Experimental data reported in article PMC12820563, “FoxP3 forms a head-to-head dimer in vivo and stabilizes its multimerization on adjacent microsatellites”.
The other results are listed elsewhere or left out.

Biological target: T1, MBP-FoxP1dN (Mus musculus, UniProt P58462 326-579)
T1 sequence: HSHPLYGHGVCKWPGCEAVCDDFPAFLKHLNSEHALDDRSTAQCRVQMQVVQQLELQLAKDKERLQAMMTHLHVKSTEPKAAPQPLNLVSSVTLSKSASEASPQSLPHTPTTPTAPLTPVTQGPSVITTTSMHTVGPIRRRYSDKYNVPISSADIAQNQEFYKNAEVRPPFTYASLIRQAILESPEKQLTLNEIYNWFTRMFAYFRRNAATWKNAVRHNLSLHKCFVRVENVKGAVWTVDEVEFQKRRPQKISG
Experiment: PD-seq (MBP pull-down with sequencing); 20 mM Tris-HCl pH 7.5, 100 mM NaCl, 1.5 mM MgCl2, 0.4 uM protein, 0.1 uM dsDNA library, 30 min, room temperature, amylose pull-down; high values mean tight binding
Conditions: protein: recombinant; tags: His6-MBP; chain copies: 2; dsDNA, one strand shown
In short: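 A degenerate double-stranded DNA library, filled in with Klenow, was added at 0.1 µM to 0.4 µM His6-MBP-tagged mouse FoxP3 or FoxP1 fragment lacking the N-terminus, expressed in E. coli. Incubation lasted 30 min at room temperature in Tris pH 7.5 buffer with NaCl and MgCl2, after which complexes were collected on amylose resin, washed three times, digested with proteinase K to free the DNA, barcoded by PCR and sequenced by Illumina. Binding is the pooled-replicate reads-per-million enrichment of pull-down over input.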

Sequence	binding signal
GATGATTGTTCTCCCAGCTGATGAATTGTCCGTTTCGAGTAAACAAATTTTCCTAATCTTTCTGTTCAAGCGCCATCTAC	0.981 RPM ratio (pull-down/input)
GATGATTGTTCTCCCAGCTGATGAATTGATTCTATCGAGTAAACAAATTTTCCTAATCTTTCTGTTCAAGCGCCATCTAC	1.07 RPM ratio (pull-down/input)
GATGATTGTTCTCCCAGCTGATGAATTAGGTAGCTCGAGTAAACAAATTTTCCTAATCTTTCTGTTCAAGCGCCATCTAC	0.899 RPM ratio (pull-down/input)
GATGATTGTTCTCCCAGCTGATGAATTTAACAGGTCGAGTAAACAAATTTTCCTAATCTTTCTGTTCAAGCGCCATCTAC	0.809 RPM ratio (pull-down/input)
GATGATTGTTCTCCCAGCTGATGAATTTGTAGTATCGAGTAAACAAATTTTCCTAATCTTTCTGTTCAAGCGCCATCTAC	1.47 RPM ratio (pull-down/input)
GATGATTGTTCTCCCAGCTGATGAATTAGGAAGTTCGAGTAAACAAATTTTCCTAATCTTTCTGTTCAAGCGCCATCTAC	0.873 RPM ratio (pull-down/input)
GATGATTGTTCTCCCAGCTGATGAATTATGCCCCTCGAGTAAACAAATTTTCCTAATCTTTCTGTTCAAGCGCCATCTAC	0.922 RPM ratio (pull-down/input)
GATGATTGTTCTCCCAGCTGATGAATTCTCCCCATCGAGTAAACAAATTTTCCTAATCTTTCTGTTCAAGCGCCATCTAC	0.961 RPM ratio (pull-down/input)
GATGATTGTTCTCCCAGCTGATGAATTACATATATCGAGTAAACAAATTTTCCTAATCTTTCTGTTCAAGCGCCATCTAC	1.34 RPM ratio (pull-down/input)
GATGATTGTTCTCCCAGCTGATGAATTTTCTTAGTCGAGTAAACAAATTTTCCTAATCTTTCTGTTCAAGCGCCATCTAC	0.92 RPM ratio (pull-down/input)
GATGATTGTTCTCCCAGCTGATGAATTTAAGTTGTCGAGTAAACAAATTTTCCTAATCTTTCTGTTCAAGCGCCATCTAC	1.36 RPM ratio (pull-down/input)
GATGATTGTTCTCCCAGCTGATGAATTTGCGAAATCGAGTAAACAAATTTTCCTAATCTTTCTGTTCAAGCGCCATCTAC	1.2 RPM ratio (pull-down/input)
GATGATTGTTCTCCCAGCTGATGAATTTCGCGTATCGAGTAAACAAATTTTCCTAATCTTTCTGTTCAAGCGCCATCTAC	0.994 RPM ratio (pull-down/input)
GATGATTGTTCTCCCAGCTGATGAATTGTAACGATCGAGTAAACAAATTTTCCTAATCTTTCTGTTCAAGCGCCATCTAC	1.03 RPM ratio (pull-down/input)
GATGATTGTTCTCCCAGCTGATGAATTAGCGTGATCGAGTAAACAAATTTTCCTAATCTTTCTGTTCAAGCGCCATCTAC	0.955 RPM ratio (pull-down/input)
GATGATTGTTCTCCCAGCTGATGAATTGACATGGTCGAGTAAACAAATTTTCCTAATCTTTCTGTTCAAGCGCCATCTAC	1.07 RPM ratio (pull-down/input)
GATGATTGTTCTCCCAGCTGATGAATTACTTTTATCGAGTAAACAAATTTTCCTAATCTTTCTGTTCAAGCGCCATCTAC	1.14 RPM ratio (pull-down/input)
GATGATTGTTCTCCCAGCTGATGAATTCGTGCCCTCGAGTAAACAAATTTTCCTAATCTTTCTGTTCAAGCGCCATCTAC	0.801 RPM ratio (pull-down/input)
GATGATTGTTCTCCCAGCTGATGAATTCAATTCCTCGAGTAAACAAATTTTCCTAATCTTTCTGTTCAAGCGCCATCTAC	0.811 RPM ratio (pull-down/input)
GATGATTGTTCTCCCAGCTGATGAATTAGTCAAATCGAGTAAACAAATTTTCCTAATCTTTCTGTTCAAGCGCCATCTAC	0.986 RPM ratio (pull-down/input)

Sequence	binding signal
GATGATTGTTCTCCCAGCTGATGAATTCGACCGTTCGAGTAAACAAATTTTCCTAATCTTTCTGTTCAAGCGCCATCTAC	0.813 RPM ratio (pull-down/input)
GATGATTGTTCTCCCAGCTGATGAATTGACAGGTTCGAGTAAACAAATTTTCCTAATCTTTCTGTTCAAGCGCCATCTAC	1.15 RPM ratio (pull-down/input)
GATGATTGTTCTCCCAGCTGATGAATTCCAGAGATCGAGTAAACAAATTTTCCTAATCTTTCTGTTCAAGCGCCATCTAC	0.86 RPM ratio (pull-down/input)
GATGATTGTTCTCCCAGCTGATGAATTTCTTTTATCGAGTAAACAAATTTTCCTAATCTTTCTGTTCAAGCGCCATCTAC	1.03 RPM ratio (pull-down/input)
GATGATTGTTCTCCCAGCTGATGAATTGGCAAATTCGAGTAAACAAATTTTCCTAATCTTTCTGTTCAAGCGCCATCTAC	1.01 RPM ratio (pull-down/input)
GATGATTGTTCTCCCAGCTGATGAATTCATGTAGTCGAGTAAACAAATTTTCCTAATCTTTCTGTTCAAGCGCCATCTAC	1.11 RPM ratio (pull-down/input)
GATGATTGTTCTCCCAGCTGATGAATTGAACCGATCGAGTAAACAAATTTTCCTAATCTTTCTGTTCAAGCGCCATCTAC	0.832 RPM ratio (pull-down/input)
GATGATTGTTCTCCCAGCTGATGAATTGGACAGGTCGAGTAAACAAATTTTCCTAATCTTTCTGTTCAAGCGCCATCTAC	0.761 RPM ratio (pull-down/input)
GATGATTGTTCTCCCAGCTGATGAATTTTTTTCGTCGAGTAAACAAATTTTCCTAATCTTTCTGTTCAAGCGCCATCTAC	0.988 RPM ratio (pull-down/input)
GATGATTGTTCTCCCAGCTGATGAATTAAGTCACTCGAGTAAACAAATTTTCCTAATCTTTCTGTTCAAGCGCCATCTAC	1.06 RPM ratio (pull-down/input)
GATGATTGTTCTCCCAGCTGATGAATTCAGGGGCTCGAGTAAACAAATTTTCCTAATCTTTCTGTTCAAGCGCCATCTAC	0.769 RPM ratio (pull-down/input)
GATGATTGTTCTCCCAGCTGATGAATTTGAGATGTCGAGTAAACAAATTTTCCTAATCTTTCTGTTCAAGCGCCATCTAC	0.935 RPM ratio (pull-down/input)
GATGATTGTTCTCCCAGCTGATGAATTCAACATATCGAGTAAACAAATTTTCCTAATCTTTCTGTTCAAGCGCCATCTAC	1.08 RPM ratio (pull-down/input)
GATGATTGTTCTCCCAGCTGATGAATTTGAGATCTCGAGTAAACAAATTTTCCTAATCTTTCTGTTCAAGCGCCATCTAC	0.779 RPM ratio (pull-down/input)
GATGATTGTTCTCCCAGCTGATGAATTTCTGCGATCGAGTAAACAAATTTTCCTAATCTTTCTGTTCAAGCGCCATCTAC	0.931 RPM ratio (pull-down/input)
GATGATTGTTCTCCCAGCTGATGAATTCGATTTATCGAGTAAACAAATTTTCCTAATCTTTCTGTTCAAGCGCCATCTAC	1.11 RPM ratio (pull-down/input)
GATGATTGTTCTCCCAGCTGATGAATTCTGATGATCGAGTAAACAAATTTTCCTAATCTTTCTGTTCAAGCGCCATCTAC	0.991 RPM ratio (pull-down/input)
GATGATTGTTCTCCCAGCTGATGAATTATCGCCTTCGAGTAAACAAATTTTCCTAATCTTTCTGTTCAAGCGCCATCTAC	1.02 RPM ratio (pull-down/input)
GATGATTGTTCTCCCAGCTGATGAATTTGGCCAGTCGAGTAAACAAATTTTCCTAATCTTTCTGTTCAAGCGCCATCTAC	0.785 RPM ratio (pull-down/input)
GATGATTGTTCTCCCAGCTGATGAATTCCCGGCATCGAGTAAACAAATTTTCCTAATCTTTCTGTTCAAGCGCCATCTAC	0.935 RPM ratio (pull-down/input)
